From the supplement of paper PMC3334620
Whole data set: some 33,000 sequences, median “E-score (-0.5 to 0.5)” near -0.032, cut for the highest 2% near 0.36. The list shows a part of the results.

What follows are sequences tested against T1, Sko1 (UniProt Q02100) (assay: PBM E-score (8-mer binding enrichment) (E-score (-0.5 to 0.5)); higher = stronger / more preferred TF binding; most listed sequences are background and not binding sites). Settings: protein concentration: 200 nM; construct: GST-full length.
T1 sequence: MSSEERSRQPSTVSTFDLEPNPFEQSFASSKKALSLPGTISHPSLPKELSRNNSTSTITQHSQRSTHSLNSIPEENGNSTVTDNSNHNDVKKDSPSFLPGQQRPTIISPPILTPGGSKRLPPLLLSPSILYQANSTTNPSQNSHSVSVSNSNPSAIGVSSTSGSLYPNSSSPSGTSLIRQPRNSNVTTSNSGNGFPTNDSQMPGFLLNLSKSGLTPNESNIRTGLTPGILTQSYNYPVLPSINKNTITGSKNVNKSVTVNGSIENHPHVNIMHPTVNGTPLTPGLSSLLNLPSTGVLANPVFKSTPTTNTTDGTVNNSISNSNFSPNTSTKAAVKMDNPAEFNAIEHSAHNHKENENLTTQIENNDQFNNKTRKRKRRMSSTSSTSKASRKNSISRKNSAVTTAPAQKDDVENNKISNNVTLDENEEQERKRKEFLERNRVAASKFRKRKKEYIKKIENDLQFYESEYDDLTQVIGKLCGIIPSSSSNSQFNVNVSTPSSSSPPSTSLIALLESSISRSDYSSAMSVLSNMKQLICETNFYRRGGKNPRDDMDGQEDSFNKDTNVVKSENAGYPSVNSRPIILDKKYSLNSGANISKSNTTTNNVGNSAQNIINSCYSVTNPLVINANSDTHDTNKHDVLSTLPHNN
In short: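 Masliner-normalised scans of fluorescent anti-GST signal were the basis for scoring. That signal came from GST-tagged yeast transcription factors applied at about 100-200 nM to double-stranded universal all-10-mer Agilent arrays on fresh or once-stripped slides. Each ungapped eight-base word, pooled with its reverse complement, received an E-score from the Universal PBM Analysis Suite.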

Sequence | PBM E-score
CACCTTTC | -0.223
ATATTTAA | 0.32
GACATTGC | 0.0301
ATGGTCCC | -0.196
CGGTACTC | -0.165
TACCATCA | -0.0837
ATAATAAA | 0.303
AGGGGACC | -0.268
CGCTTTGA | -0.101
CTAATACC | -0.0534
ATTAGTTG | 0.0951
GCCTACTA | -0.0173
ACTAGTCC | 0.0157
AACTCGCG | 0.178
GGGTAAGA | -0.161
GCGCAAGC | -0.0196
ACACCAGC | -0.129
ACGCTTAA | 0.0637
TAGACTCA | 0.0362
ACTCGGTC | -0.0986
CACAGCAA | 0.173
ACTGCTAT | -0.132
CGACTCAA | 0.0143
GTCCCCGA | -0.136
CGACGTAA | 0.472

Sequence | PBM E-score
ACCGGTAT | -0.214
CGGTAAAC | -0.00793
AAGGTGGA | -0.157
AATGGCGC | -0.0228
ATCCTGAA | 0.156
AGACATCG | -0.148
CGATTACA | 0.106
ATGCCAAA | -0.0114
CTTTGTTC | -0.13
GGCGCCTA | -0.163
AATACGGA | 0.138
AACGAGAG | 0.155
TAGAGCTA | -0.169
GGTCTCAC | -0.087
ATGGTACG | 0.279
AGATTAAT | 0.0905
CCCACGGA | -0.0825
AAGGGTGT | 0.0672
AATTCGTG | 0.169
ATGCACAC | 0.0253
CAAAGCGA | -0.141
CCTTGCTC | -0.307
CATGATAG | 0.0738
CGAACTTC | 0.115
CTAAGCGC | -0.083

Sequence | PBM E-score
CAGCCTGC | -0.225
AAGGACGG | -0.22
ACAAGCAA | 0.0627
CCGTTCCG | -0.149
CGATGTAC | 0.144
AGACCCAG | -0.0788
GTCTACAA | -0.00077
ACCCGCCA | -0.0876
ACCCCAGA | -0.138
AGCTGCCG | -0.147
GAATAATC | 0.219
CTCGGACC | -0.184
CAGATTAA | 0.162
AACCGTAA | 0.0957
GTCTGAAA | 0.124
AAGCCAGG | -0.0853
ATCCCCGC | -0.265
GATTATAC | 0.079
ATAGGTGA | 0.0325
CTACTCGC | -0.139
CCGACCAG | -0.195
TGCTGCAA | 0.093
CCGGAACC | -0.301
CAGAGCAA | -0.0947
CTGGTGCA | -0.172

Sequence | PBM E-score
CATGACTC | -0.0516
TGGCGGAA | -0.102
TCCCCCAA | -0.226
CTGTGATC | -0.0559
ACCGGAAA | -0.0601
GGATTTAA | 0.0899
AAATCTAT | 0.204
GCCCATAC | 0.0102
CTTTAATC | 0.0512
GACTGTCA | -0.182
CAAGGGAA | -0.134
TATAGCAA | 0.0706
CAGAAGTC | -0.113
GTCTTAAA | 0.00132
ACCGCGCC | -0.0509
AGTGAACC | -0.156
CACGAAAG | 0.0636
CATACGTC | 0.466
ATAATCTA | 0.189
GGCGTCCC | -0.394
CGCCCTAA | -0.221
CAGCCAGC | -0.213
ATAAGACC | -0.17
ACCGGCCT | -0.0244
CGCCGGAA | -0.23

Sequence | PBM E-score
AACCTTGA | 0.094
GACACCAA | 0.00349
CTGTCCCC | -0.264
CTGTCCAA | -0.0587
GGTCTGAC | 0.0417
CTTACTTC | 0.151
CGAAAGTA | 0.0596
GGGCGCCA | -0.147
CCACCCTA | 0.00159
GACTCGGA | -0.231
CCATTTCG | -0.1
CCGATTAG | -0.178
AACATAAC | 0.235
CCATTTAG | -0.157
ATCCTGGG | -0.201
TCTTGTAA | 0.178
CACCTGGA | -0.0797
ACGGAAGG | -0.114
CTCGGTTA | -0.135
CTATCAAA | -0.0877
TCAAGCCA | 0.106
CTCCGGGC | -0.327
CCCCGAGC | -0.208
AGATGCTG | -0.2
GAAAGGTA | 0.0339

Sequence | PBM E-score
GCGTGCCC | -0.143
CCTACGAG | 0.103
CCTAGAGA | -0.302
GCAGCTGC | -0.0556
TCGGCGCA | -0.094
AAAAACCC | -0.115
CTAGTGTA | 0.00949
GATGCTCC | -0.182
GTTTCATA | 0.0355
ATTTCAGA | 0.113
CGCAACGA | 0.175
AACTTCGG | -0.142
TTCGGCAA | 0.0302
CAGATGCG | -0.0828
CTCAAAAA | 0.115
AAACTAGG | -0.166
GTTGAACA | -0.0806
GGTCCCCA | -0.242
CGTTCCAA | 0.176
TAAGAAAA | 0.109
GCCCGTAC | -0.225
CCACAAAC | -0.0339
AGCCCTCA | -0.148
GGTCTGCA | -0.208
CGCTACGC | 0.0784

Sequence | PBM E-score
ACGCTCAT | 0.112
ATTTCGGG | -0.103
AAAGGGAC | -0.119
ACTGGTAT | -0.17
CTTTATAA | 0.0548
ACTCGACA | -0.0755
CTACGATC | 0.123
CGGCGTAG | -0.0753
ACATTTAC | 0.226
ACAATTGC | 0.195
ACCGGGTC | -0.116
CTAAAGGC | -0.0381
CGTTTTTA | 0.206
GGGCATAC | -0.187
ATTCAGAC | 0.173
CCTAGTGA | -0.0238
CTCTGTCA | 0.0253
CCCTGCGA | -0.126
CGTCGGCA | -0.0449
CGTCGCAA | 0.0897
CGGCGTGA | -0.0945
CCTACCAA | -0.00101
